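Cells were grown in 96-well plates and exposed to each compound for 48 hours at five concentrations; endpoints were interpolated linearly between bracketing concentrations, or set to the highest concentration if not reached. At the GI50, growth is halved.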 The source made the active and inactive calls. Rule as the data show it: active = GI50 up to about 1.1 µM and inactive = higher. Square brackets hold non-standard residues; d marks the D form. Peptide text beside a SMILES is read from it. * marks the point of attachment. Benzoyl(4-OMe) = COc1ccc(C(=O)*)cc1; 2Thi = N[CH](Cc1cccs1)C(=O)O
The compounds below were run on NCI-H322M (assay: NCI tumour cell line growth inhibition, 48 h).

| Compound | GI50 |
| --- | --- |
| O=C(c1ccc(Cl)cc1)c1ccc(OCCCOc2ccc(C(=O)c3ccc(Cl)cc3)cc2)cc1 | inactive: > 100 µM |
| CC(=O)Nc1ccc(C(=O)NN2C(=O)CSC2c2ccc([N+](=O)[O-])cc2)cc1 (stereo not drawn) | inactive: > 100 µM |
| CN(C)CCNC(=O)c1cccc2nc3ccc4ccccc4c3nc12 | active: 0.091 µM |
| O=C(Nc1ccc(Cl)cc1)C1C(=O)C(=O)N(c2ccc(Cl)cc2)C1=O (stereo not drawn) | inactive: 90.4 µM |
| COc1ccc(NC(S)=Nc2cccc(C)n2)cc1 | inactive: > 100 µM |
| Cc1cc2nc(CC(C(F)(F)F)C(F)(F)F)oc2cc1C | inactive: 3.27 µM |
| NS(=O)(=O)c1ccc(/N=N/c2c(O)c(C(=O)O)cc3ccccc23)cc1 | inactive: > 100 µM |
| COC1CCON1C(=O)c1ccccc1 (stereo not drawn) | inactive: > 10 µM |
| COc1ccc2c3c([nH]c2c1)[C@H]1C[C@H]2[C@H](C[C@@H](O)[C@H](OC)[C@H]2C(=O)O)CN1CC3 | inactive: > 100 µM |
| O=c1c2cccnc2cc(-c2ccccc2)n1CCO | inactive: > 100 µM |
| COc1ccc(C)cc1NC(=S)N/N=C/c1ccco1 | inactive: 40.7 µM |
| C[n+]1cc(C(O)c2ccc3c(c2)OCO3)c2ccccc2c1 (stereo not drawn) | inactive: 32.3 µM |
| COc1ccc(C(=C(Cl)c2ccccc2)c2ccc(OC)cc2)cc1 | inactive: > 100 µM |
| S=C=Nc1ccc(CSc2nc3ccccc3[nH]2)cc1 | inactive: 17.4 µM |
| CC(C)(C)[C@H]1NC(=O)CN1C(=O)OCc1ccccc1 | inactive: > 100 µM |
| CC(=O)/C(=C\c1ccccc1O)C(=O)Nc1ccccc1C | inactive: 22.4 µM |
| CN(C)c1ccc(/C=C/C(=O)N[C@@H]2C(=O)N3[C@@H]2SC(C)(C)[C@@H]3C(=O)O)cc1 | inactive: > 100 µM |
| N/C(=N\c1ccc(Cl)cc1)NS(=O)(=O)c1ccc(-c2ccccn2)s1 | inactive: 18.7 µM |
| CC(C)CC(=O)OC[n+]1ccc(-c2c(COC(=O)NC(C)C)c(COC(=O)NC(C)C)c3n2CCC3)cc1 | inactive: > 100 µM |
| CC(=O)Nc1ccc(C(=O)N2N=C(C)/C(=C/c3ccc(O)cc3)C2=O)cc1 | inactive: 89.5 µM |
| CCOC(=O)c1cc(Br)c(-c2onc(C)c2Br)n1C | inactive: > 100 µM |
| O=C(COc1ccc(OCC(=O)N2C(=O)CN(c3ccc(Cl)cc3)C2=S)cc1)N1C(=O)CN(c2ccc(Cl)cc2)C1=S | inactive: 28.1 µM |

| Compound | GI50 |
| --- | --- |
| Cc1cccc(-c2nc(-c3cnccn3)n(Cc3ccccc3)n2)c1 | inactive: > 100 µM |
| C/N=C(N)/N=C(\N)Nc1cc2ccccc2c2ccccc12 | inactive: 15.5 µM |
| CS(=O)(=O)OCCN(CCOS(C)(=O)=O)c1ccc(/C=N/c2ccc(-c3csc(COc4ccccc4)n3)cc2)cc1 | inactive: 10.7 µM |
| COc1cc([C@@H]2c3cc4c(cc3[C@@H](OC3OC5COC(C)OC5C(OC(=O)CN5CCN(C)CC5)C3OC(=O)CN3CCN(C)CC3)C3COC(=O)[C@@H]32)OCO4)cc(OC)c1OC(=O)CN1CCN(C)CC1 (stereo partly drawn) | inactive: > 100 µM |
| COC(=O)Cc1c(C2C(CC(=O)OC)c3ccccc3N2C2OC(CO)C(O)C(O)C2O)[nH]c2ccccc12 (stereo not drawn) | inactive: > 100 µM |
| COc1ccc(/C=C2\N=C(c3ccccc3)OC2=O)cc1OC(C)=O | inactive: > 100 µM |
| O=C(O)CCN(CCC(=O)O)c1ccc(/C=C2\SC(=S)NC2=O)cc1 | inactive: > 100 µM |
| Cc1oc2c(C)c(O)c3c(c2c1C1(C)OCCO1)C(=O)C=C(Cl)C3=O | inactive: > 100 µM |
| NC(=O)C(=Cc1ccc(C(O)P(=O)(O)O)cc1)C(N)=O (stereo not drawn) | inactive: > 100 µM |
| O=C(Nc1ccn(C2CCC(CO)O2)c(=O)n1)c1ccccc1 (stereo not drawn) | inactive: > 100 µM |
| N#Cc1nc(Nc2cccc3ccccc23)sc1N | inactive: 56.1 µM |
| O=c1[nH]cc(/N=C/c2cc(Cl)cc(Cl)c2O)c(=O)[nH]1 | inactive: 19.2 µM |
| O=c1c2cc(S(=O)(=O)Nc3ccc(Cl)cc3Cl)ccc2ncn1NS(=O)(=O)c1cccc2ccccc12 | inactive: 33.8 µM |
| C[C@]12CCC(=O)C=C1CC[C@@H]1[C@@H]2[C@@H](O)C[C@@]2(C)[C@H]1CC[C@]2(O)C(=O)COC(=O)C1CCCC1 | inactive: > 100 µM |
| Cc1cccc2c1Oc1cc(Cl)ccc1C2NC(=O)CCN1CCCCC1 (stereo not drawn) | inactive: 13.7 µM |
| Cc1cc(C)n(-c2ccnc3cc(Cl)ccc23)n1 | inactive: > 100 µM |
| COc1ccc(/C=C2\CCC(C)C3=C2NC(=S)NC3c2ccc(OC)c(OC)c2)cc1OC (stereo not drawn) | inactive: 27.5 µM |
| O=C1C2CC[C@@H]3C(=O)C(Cl)(Cl)[C@@H]3CCC2C1(Cl)Cl (stereo partly drawn) | inactive: 50.8 µM |
| Cc1nn(C)c2nc3ccc(Cl)cc3c(-c3ccccc3)c12 | inactive: > 100 µM |
| O=P(O)(CCP(=O)(O)c1ccccc1)c1ccccc1 | inactive: > 100 µM |
| NC(=O)CCC(NC(=O)c1cccc2c(=O)c3ccccc3[nH]c12)C(=O)O (stereo not drawn) | inactive: > 100 µM |
| COc1cc2oc(-c3ccc(O)cc3)c(OC3OC(C)C(O)C(O)C3O)c(=O)c2c(O)c1OC (stereo not drawn) | inactive: > 100 µM |

| Compound | GI50 |
| --- | --- |
| COc1ccc(-c2cc(-c3ccccc3)nc(/N=C\c3ccccc3)n2)c(O)c1 | inactive: 48.3 µM |
| Cc1coc2c1C(OC(=O)C(C)C)C1(C)C(C)CCC(O)C1C2=O (stereo not drawn) | inactive: > 100 µM |
| CCc1n[nH]c(=O)n1/N=C(\C)c1ccccc1 | inactive: > 100 µM |
| CSc1nc(SC)c2ncn(C3CC(Oc4ccc(C)cc4)C(COc4ccc(C)cc4)O3)c2n1 (stereo not drawn) | inactive: > 100 µM |
| CC(=O)Nc1ccc(/N=N\c2c(O)c(S(=O)(=O)O)cc3cc(S(=O)(=O)O)ccc23)cc1 | inactive: > 100 µM |
| CCC1C(c2ccccc2O)c2cc3c(cc2OC1N1CCOCC1)OCO3 (stereo not drawn) | inactive: 16.2 µM |
| O=[N+]([O-])c1ccc(-n2nc3ccc4c(no[n+]4[O-])c3[n+]2[O-])c([N+](=O)[O-])c1 | inactive: 3.05 µM |
| CCC(C)C(NC(=O)C(Cc1cccs1)NC(=O)C(CC(C)C)NC(=O)C(CC(C)C)NC(=O)C(CCCCN)NC(=O)C(CCCNC(=N)N)NC(=O)c1ccc(OC)cc1)C(=O)NC(CC(C)C)C(N)=O (stereo not drawn) ({Benzoyl(4-OMe)}-RKLL[2Thi]IL-NH2; configuration not given here) | inactive: > 100 µM |
| CC12CCC([C@H](C(O)C3CCCCC3)C1=O)C2(C)C (stereo partly drawn) | inactive: > 100 µM |
| Cc1cc(NS(=O)(=O)c2ccc(NC(=O)c3cccc4c(N)c5ccccc5nc34)cc2)no1 | inactive: 20 µM |
| Cc1cccc(C)c1NC(=O)Nc1ccc(S(N)(=O)=O)cc1 | inactive: > 100 µM |
| CC(=O)C1COC(O)C1C (stereo not drawn) | inactive: 29.4 µM |
| CN1CCN(c2ccc([N+](=O)[O-])c3no[n+]([O-])c23)CC1 | inactive: 1.66 µM |
| N#C/C(=N/Nc1[nH]cnc1C(N)=O)C(=O)Nc1ccccc1 | inactive: > 100 µM |
| CC(C)=NNC(=S)NC12CC3CC(CC(C3)C1)C2 | inactive: > 100 µM |
| O=C(O)CC1NC(/C(=C/c2ccccc2)NC(=O)c2ccccc2)OC1=O (stereo not drawn) | inactive: > 100 µM |
| O=C(N/N=C1/C(=O)c2c3ccccc3cc3cccc1c23)c1ccccc1 | inactive: 36.3 µM |
| N#Cc1c(NC(=S)Nc2ccc(Cl)cc2)sc2c1CCN(N1CCc3c(sc(NC(=S)Nc4ccc(Cl)cc4)c3C#N)C1)C2 | inactive: 17.3 µM |
| Cc1ccc2cccc3c2c1CC1(C3=O)S(=O)(=O)OCCOS1(=O)=O | inactive: > 100 µM |
| Cc1cccc(N2C(=O)/C(=C/c3ccc(N(CCC#N)CCC#N)cc3C)N=C2c2cc([N+](=O)[O-])ccc2Cl)c1 | inactive: > 100 µM |
| COc1ccc2c3c([nH]c(=O)c2c1C(=O)O)-c1ccccc1CC3 | inactive: > 100 µM |
| Cc1ccc([N+](=O)[O-])c2c(NCCC[N+](C)(C)[O-])ccnc12 | inactive: 73.8 µM |

| Compound | GI50 |
| --- | --- |
| COc1ccc(/C=C\c2cc(OC)c(OC)c(OC)c2)cc1OC(=O)C(N)CCC(=O)O (stereo not drawn) | active: 0.000518 µM |
| CN(C)C(c1ccccc1)C1COC2Cc3ccccc3C1O2 (stereo not drawn) | inactive: > 100 µM |
| COC1CC2C3/C(=N/Nc4ccc([N+](=O)[O-])cc4[N+](=O)[O-])CCC2(C)C3C1 (stereo not drawn) | inactive: > 100 µM |
| O=C1NP23(OCCO2)Oc2ccccc2C3(C(F)(F)F)O1 (stereo not drawn) | inactive: > 100 µM |
| COc1ccc(NN=C2C(=O)CCC2=O)cc1 | inactive: > 100 µM |
| COc1ccc(S(=O)(=O)N(C)CC(=O)O)cc1 | inactive: > 100 µM |
| O=C1C2CCN(CC2)C1CN1CCOCC1 (stereo not drawn) | inactive: 16.6 µM |
| COc1cc(OC)c(OC)cc1/C=N/N=C(\N)NO | inactive: > 100 µM |
| Clc1ccc(-c2cn3c(nc4ccccc43)c(/C=C/c3ccco3)n2)cc1 | inactive: > 100 µM |
| COc1ccc(-c2cc3c(c4cc(OC)ccc24)C(=O)OC3=O)cc1 | inactive: > 100 µM |
| CC(=O)OC1COC(Nc2ccc(C(C)=O)cc2)C(OC(C)=O)C1OC(C)=O (stereo not drawn) | inactive: > 100 µM |
| CCOc1ccc(N(CC(=O)N2CC(=O)Nc3cc(C)c(C)cc32)C(C)=O)cc1 | inactive: > 100 µM |
| NC(=O)CCCC(NCc1c2ccccc2nc2ccccc12)C(=O)O (stereo not drawn) | inactive: > 100 µM |
| CC(=O)Nc1ccc2nc(-c3cccc(Cl)c3)cc(O)c2c1 | inactive: 50.9 µM |
| COc1ccc2o/c(=N/c3ccccc3)c(C(N)=O)cc2c1 | inactive: > 37.3 µM |
| O=C(COc1ccc(OCC(=O)N/N=C/c2ccc(-c3ccc(Cl)cc3Cl)o2)c(Cl)c1)N/N=C/c1ccc(-c2ccc(Cl)cc2Cl)o1 | inactive: > 100 µM |
| COc1ccc(CCNCCCC2c3ccccc3-c3ccccc32)cc1OC | inactive: 12.7 µM |
| CC(C)OC(=O)Nc1c([N+](=O)[O-])cc(C(F)(F)F)cc1[N+](=O)[O-] | inactive: > 100 µM |
| CC(=O)C1=NN(c2ccccc2)C2(S1)SC(c1ccccc1)(c1ccccc1)c1ccccc12 (stereo not drawn) | inactive: > 100 µM |
| OC(c1nc2ccccc2[nH]1)C(O)C(O)C(O)c1nc2ccccc2[nH]1 (stereo not drawn) | inactive: > 100 µM |
| Cc1cc(O)c(C=O)c2c1C(=O)Oc1c(CO)c(O)c3c(c1O2)C(O)OC3=O (stereo not drawn) [SLAZINIC ACID] | inactive: 61.8 µM |
| CN1CCc2cc(O)c3cc2C1Cc1ccc(cc1)Oc1cc(ccc1O)CC1c2c(cc4c(c2O3)OCO4)CCN1C (stereo not drawn) | inactive: 53.7 µM |
